Test results from patent US20070149465A1, “COMPOSITIONS AND METHODS FOR PREVENTION AND TREATMENT OF CACHEXIA” (priority 2005, published 2007).
This continues a long series; more values of the same kind are listed elsewhere.

Assay: Aqueous stability of roxithromycin (% Purity by HPLC)
Type: physicochemical
Conditions: 2 mg/mL
Description: Roxithromycin stability was determined for 2 mg/mL [roxithromycin] at 5, 25, and 40° C. as a function of pH and buffer (citrate) concentration. Roxithromycin %Purity was determined by area normalization using a reverse-phase HPLC method that meets the requirements of the EP Monograph. Solution pH values were determined per USP <791>.

## CC[C@H]1OC(=O)[C@H](C)[C@@H](O[C@H]2C[C@@](C)(OC)[C@@H](O)[C@H](C)O2)[C@H](C)[C@@H](O[C@@H]2O[C@H](C)C[C@H](N(C)C)[C@H]2O)[C@](C)(O)C[C@@H](C)/C(=N\OCOCCOC)[C@H](C)[C@@H](O)[C@]1(C)O [roxithromycin]
5° C., citrate pH 4, 20 mM, 0 mo
  Roxithromycin % Purity By Area Normalization: 98%
5° C., citrate pH 4, 20 mM, 0.3 mo
  Roxithromycin % Purity By Area Normalization: 78%
5° C., citrate pH 4, 20 mM, 0.5 mo
  Roxithromycin % Purity By Area Normalization: 77%
5° C., citrate pH 4, 20 mM, 0.9 mo
  Roxithromycin % Purity By Area Normalization: 77%
5° C., citrate pH 4, 20 mM, 1.5 mo
  Roxithromycin % Purity By Area Normalization: 75%
5° C., citrate pH 4, 20 mM, 2.6 mo
  Roxithromycin % Purity By Area Normalization: 74%
5° C., citrate pH 4, 20 mM, 5.3 mo
  Roxithromycin % Purity By Area Normalization: 69%
5° C., citrate pH 4, 20 mM, 7.3 mo
  Roxithromycin % Purity By Area Normalization: 67%
5° C., citrate pH 4, 50 mM, 0 mo
  Roxithromycin % Purity By Area Normalization: 98%
5° C., citrate pH 4, 50 mM, 0.3 mo
  Roxithromycin % Purity By Area Normalization: 76%
5° C., citrate pH 4, 50 mM, 0.5 mo
  Roxithromycin % Purity By Area Normalization: 76%
5° C., citrate pH 4, 50 mM, 0.9 mo
  Roxithromycin % Purity By Area Normalization: 75%
5° C., citrate pH 4, 50 mM, 1.5 mo
  Roxithromycin % Purity By Area Normalization: 73%
5° C., citrate pH 4, 50 mM, 2.6 mo
  Roxithromycin % Purity By Area Normalization: 71%
5° C., citrate pH 4, 50 mM, 5.3 mo
  Roxithromycin % Purity By Area Normalization: 64%
5° C., citrate pH 4, 50 mM, 7.3 mo
  Roxithromycin % Purity By Area Normalization: 60%
5° C., citrate pH 5, 20 mM, 0 mo
  Roxithromycin % Purity By Area Normalization: 81%
5° C., citrate pH 5, 20 mM, 0.3 mo
  Roxithromycin % Purity By Area Normalization: 93%
5° C., citrate pH 5, 20 mM, 0.5 mo
  Roxithromycin % Purity By Area Normalization: 91%
5° C., citrate pH 5, 20 mM, 0.9 mo
  Roxithromycin % Purity By Area Normalization: 89%
5° C., citrate pH 5, 20 mM, 1.5 mo
  Roxithromycin % Purity By Area Normalization: 85%
5° C., citrate pH 5, 20 mM, 2.6 mo
  Roxithromycin % Purity By Area Normalization: 82%
5° C., citrate pH 5, 20 mM, 5.3 mo
  Roxithromycin % Purity By Area Normalization: 80%
5° C., citrate pH 5, 20 mM, 7.3 mo
  Roxithromycin % Purity By Area Normalization: 79%
5° C., citrate pH 5, 50 mM, 0 mo
  Roxithromycin % Purity By Area Normalization: 78%
5° C., citrate pH 5, 50 mM, 0.3 mo
  Roxithromycin % Purity By Area Normalization: 88%
5° C., citrate pH 5, 50 mM, 0.5 mo
  Roxithromycin % Purity By Area Normalization: 85%
5° C., citrate pH 5, 50 mM, 0.9 mo
  Roxithromycin % Purity By Area Normalization: 84%
5° C., citrate pH 5, 50 mM, 1.5 mo
  Roxithromycin % Purity By Area Normalization: 81%
5° C., citrate pH 5, 50 mM, 2.6 mo
  Roxithromycin % Purity By Area Normalization: 79%
5° C., citrate pH 5, 50 mM, 5.3 mo
  Roxithromycin % Purity By Area Normalization: 78%
5° C., citrate pH 5, 50 mM, 7.3 mo
  Roxithromycin % Purity By Area Normalization: 77%
5° C., citrate pH 5, 100 mM, 0 mo
  Roxithromycin % Purity By Area Normalization: 90%
5° C., citrate pH 5, 100 mM, 0.3 mo
  Roxithromycin % Purity By Area Normalization: 85%
5° C., citrate pH 5, 100 mM, 0.5 mo
  Roxithromycin % Purity By Area Normalization: 83%
5° C., citrate pH 5, 100 mM, 0.9 mo
  Roxithromycin % Purity By Area Normalization: 81%
5° C., citrate pH 5, 100 mM, 1.5 mo
  Roxithromycin % Purity By Area Normalization: 79%
5° C., citrate pH 5, 100 mM, 2.6 mo
  Roxithromycin % Purity By Area Normalization: 78%
5° C., citrate pH 5, 100 mM, 5.3 mo
  Roxithromycin % Purity By Area Normalization: 76%
5° C., citrate pH 5, 100 mM, 7.3 mo
  Roxithromycin % Purity By Area Normalization: 76%
5° C., citrate pH 6, 20 mM, 0 mo
  Roxithromycin % Purity By Area Normalization: 96%
5° C., citrate pH 6, 20 mM, 0.3 mo
  Roxithromycin % Purity By Area Normalization: 98%
5° C., citrate pH 6, 20 mM, 0.5 mo
  Roxithromycin % Purity By Area Normalization: 97%
5° C., citrate pH 6, 20 mM, 0.9 mo
  Roxithromycin % Purity By Area Normalization: 97%
5° C., citrate pH 6, 20 mM, 1.5 mo
  Roxithromycin % Purity By Area Normalization: 97%
5° C., citrate pH 6, 20 mM, 2.6 mo
  Roxithromycin % Purity By Area Normalization: 96%
5° C., citrate pH 6, 20 mM, 5.3 mo
  Roxithromycin % Purity By Area Normalization: 96%
5° C., citrate pH 6, 20 mM, 7.3 mo
  Roxithromycin % Purity By Area Normalization: 94%
5° C., citrate pH 6, 50 mM, 0 mo
  Roxithromycin % Purity By Area Normalization: 92%
5° C., citrate pH 6, 50 mM, 0.3 mo
  Roxithromycin % Purity By Area Normalization: 97%
5° C., citrate pH 6, 50 mM, 0.5 mo
  Roxithromycin % Purity By Area Normalization: 96%
5° C., citrate pH 6, 50 mM, 0.9 mo
  Roxithromycin % Purity By Area Normalization: 96%
5° C., citrate pH 6, 50 mM, 1.5 mo
  Roxithromycin % Purity By Area Normalization: 95%
5° C., citrate pH 6, 50 mM, 2.6 mo
  Roxithromycin % Purity By Area Normalization: 93%
5° C., citrate pH 6, 50 mM, 5.3 mo
  Roxithromycin % Purity By Area Normalization: 90%
5° C., citrate pH 6, 50 mM, 7.3 mo
  Roxithromycin % Purity By Area Normalization: 87%
5° C., citrate pH 6, 100 mM, 0 mo
  Roxithromycin % Purity By Area Normalization: 90%
5° C., citrate pH 6, 100 mM, 0.3 mo
  Roxithromycin % Purity By Area Normalization: 96%
5° C., citrate pH 6, 100 mM, 0.5 mo
  Roxithromycin % Purity By Area Normalization: 95%
5° C., citrate pH 6, 100 mM, 0.9 mo
  Roxithromycin % Purity By Area Normalization: 95%
5° C., citrate pH 6, 100 mM, 1.5 mo
  Roxithromycin % Purity By Area Normalization: 93%
5° C., citrate pH 6, 100 mM, 2.6 mo
  Roxithromycin % Purity By Area Normalization: 90%
5° C., citrate pH 6, 100 mM, 5.3 mo
  Roxithromycin % Purity By Area Normalization: 86%
5° C., citrate pH 6, 100 mM, 7.3 mo
  Roxithromycin % Purity By Area Normalization: 84%
25° C., citrate pH 5, 100 mM, 0.9 mo
  Roxithromycin % Purity By Area Normalization: 75%
25° C., citrate pH 5, 100 mM, 1.5 mo
  Roxithromycin % Purity By Area Normalization: 73%
25° C., citrate pH 5, 100 mM, 2.6 mo
  Roxithromycin % Purity By Area Normalization: 67%
25° C., citrate pH 5, 100 mM, 5.3 mo
  Roxithromycin % Purity By Area Normalization: 60%
25° C., citrate pH 5, 100 mM, 7.3 mo
  Roxithromycin % Purity By Area Normalization: 50%
25° C., citrate pH 6, 100 mM, 0 mo
  Roxithromycin % Purity By Area Normalization: 98%
25° C., citrate pH 6, 100 mM, 0.3 mo
  Roxithromycin % Purity By Area Normalization: 94%
25° C., citrate pH 6, 100 mM, 0.5 mo
  Roxithromycin % Purity By Area Normalization: 92%
25° C., citrate pH 6, 100 mM, 0.9 mo
  Roxithromycin % Purity By Area Normalization: 89%
25° C., citrate pH 6, 100 mM, 1.5 mo
  Roxithromycin % Purity By Area Normalization: 85%
25° C., citrate pH 6, 100 mM, 2.6 mo
  Roxithromycin % Purity By Area Normalization: 81%
25° C., citrate pH 6, 100 mM, 5.3 mo
  Roxithromycin % Purity By Area Normalization: 78%
25° C., citrate pH 6, 100 mM, 7.3 mo
  Roxithromycin % Purity By Area Normalization: 76%
